Measured values published in PubChem BioAssay AID1460 (National Center for Advancing Translational Sciences (NCATS), 2008).
About 5,800 (2.1%) of roughly 270,000 compounds were called active. Inconclusive means that the source gave no clear call. Such entries were picked first, then a sample of the others. The call rests on the fitted dose curve; in most records, active means well fitted inhibition curve with a large enough effect; inconclusive means small, poorly fitted or top-dose-only effect; inactive means flat fitted curve, though single readings scatter. Where the call is inconclusive, the potency comes from a doubtful curve fit.

Biological target: Microtubule-associated protein tau (Homo sapiens) (UniProt P10636)
Assay: qHTS for Inhibitors of Tau Fibril Formation, Thioflavin T Binding; further: nearly all actives have a fitted effect of over 55% in size
Conditions: recombinant tau K18 P301L (four-repeat tau fragment), heparin-induced fibrillization, ThT fluorescence; series mostly up to 57.4 µM; activity, negative = inhibition: at the top concentration
Outline: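 Recombinant human tau K18 fragment […] carrying P301L, 15 uM unlabeled plus 0.24 uM Alexa 594-labeled, was fibrillized with 20 uM heparin in 100 mM sodium acetate pH 7 for 6 hr at 37 C; 30 uM ThT fluorescence read after 1 hr.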
On the % scale 0 is the no-effect control and ±100 the full control effect; potency means the concentration at half of the fitted maximal effect; tags describe the fitted curve by direction and shape.

UniProt P10636, sequence (P10636 whole entry, looked up): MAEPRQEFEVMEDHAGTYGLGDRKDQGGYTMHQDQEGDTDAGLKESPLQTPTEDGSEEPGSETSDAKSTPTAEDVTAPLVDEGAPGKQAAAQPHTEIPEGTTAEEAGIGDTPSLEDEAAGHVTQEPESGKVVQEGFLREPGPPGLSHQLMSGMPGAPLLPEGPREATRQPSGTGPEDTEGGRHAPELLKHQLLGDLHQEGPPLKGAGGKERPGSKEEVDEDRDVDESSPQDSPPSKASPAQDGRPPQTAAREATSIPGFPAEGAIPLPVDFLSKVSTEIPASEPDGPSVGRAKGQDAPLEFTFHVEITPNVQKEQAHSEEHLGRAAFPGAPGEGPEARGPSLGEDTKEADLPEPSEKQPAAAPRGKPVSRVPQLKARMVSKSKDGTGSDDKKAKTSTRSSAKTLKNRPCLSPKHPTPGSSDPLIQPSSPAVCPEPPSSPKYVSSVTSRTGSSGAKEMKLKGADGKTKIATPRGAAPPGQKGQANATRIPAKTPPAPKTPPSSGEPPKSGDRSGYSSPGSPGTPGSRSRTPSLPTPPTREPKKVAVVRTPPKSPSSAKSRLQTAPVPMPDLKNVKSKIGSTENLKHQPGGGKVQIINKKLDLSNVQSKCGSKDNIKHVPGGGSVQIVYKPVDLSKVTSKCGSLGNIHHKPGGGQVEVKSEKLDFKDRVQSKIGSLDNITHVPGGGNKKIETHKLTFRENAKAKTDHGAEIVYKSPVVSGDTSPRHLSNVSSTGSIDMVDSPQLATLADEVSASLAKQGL

`CCn1c(O)c(N=NC2=NC(=O)CS2)c2cc(C)ccc21` was tested. Which Potency did it give?
Its Potency is inconclusive: 15.8 µM [inhibitor, partial curve].

Which “activity, negative = inhibition” value does the source give for `COc1ccc(OC)c(NC(=O)CSc2nnc(CNC(=O)COc3ccc(Cl)cc3)o2)c1` here?
Its value is inactive: -7.02%.

How did the “activity, negative = inhibition” value turn out when `CCOc1cccc(CNCCCSc2nnnn2C)c1` was run?
The value was inactive: 3.03%.

`COc1ccc(OC)c(NC(=O)CSC2=Nc3ccccc3C3=NC(CC(=O)NCCc4ccccc4)C(=O)N23)c1` (configuration not stated) was tested. Which “activity, negative = inhibition” value did it give?
Its value is inactive: -3.76%.

How did the Potency turn out when `Cc1ccc(-c2ccc([C@H]3[C@H]4C=CC[C@@H](C)[C@@H]4C(=O)N3Cc3ccccc3)c(F)c2)cc1` was run?
The Potency was inconclusive: 35.5 µM [inhibitor, single point].

`Clc1ccc(CSc2nnc(-c3cccnc3)n2Cc2ccco2)c(Cl)c1` was tested. Which Potency did it give?
Its Potency is inconclusive: 31.6 µM [inhibitor, single point].

With `CCc1cc2c3c(c1)C(C)CC(C)(C)N3C(=O)/C2=C1\SC(=O)NC1=O` (configuration not stated) as the compound, how does the Potency read?
Its Potency is active: 14.1 µM.

How did the “activity, negative = inhibition” value turn out when `CC(=O)N1CCC2(CC1)C(C#N)=C(N)OC1=C2C(=O)CC(C)(C)C1` was run?
Its value is inactive: -6.54%.

For `CCn1nc(C)c2c(-c3ccccc3)cc(=O)n(C(C)C(=O)NCCc3ccc(Cl)cc3)c21` (configuration not stated), which Potency is on record?
The Potency was inconclusive: 39.8 µM [inhibitor, single point].

Which “activity, negative = inhibition” value does the source give for `COc1ccccc1NC(=O)c1cc(C(=O)Nc2ccccc2OC)cc(N2C(=O)CCC2=O)c1` here?
Its value is inactive: 1.62%.

With `O=C(c1ccc([N+](=O)[O-])s1)N1CCN(c2cccc(Cl)c2)CC1` as the compound, how does the Potency read?
Its Potency is inconclusive: 11.2 µM [inhibitor, partial curve].

With `O=S(=O)(c1ccc(-c2cnc(C3CC3)o2)cc1)N1CCN(c2ccc(F)cc2)CC1` as the compound, how does the Potency read?
The Potency was inconclusive: 31.6 µM [inhibitor, single point].

For `CCOc1ccc(NCc2nnc(SCc3ccccc3Cl)n2-c2ccccc2)cc1`, which Potency is on record?
Its Potency is inconclusive: 17.8 µM [inhibitor, partial curve, poor fit].

How did the Potency turn out when `COc1nnc(-c2ccc(N3CCCCC3)c(NC(=O)c3ccc(C)cc3)c2)c2ccccc12` was run?
The Potency was inconclusive: 22.4 µM [inhibitor, single point].

Which Potency does the source give for `O=C(c1cccc([N+](=O)[O-])c1)N1CCN(c2ccc(Nc3ccccc3)nn2)CC1` here?
The Potency was inconclusive: 14.1 µM [inhibitor, partial curve].

`CN(C)S(=O)(=O)Oc1ccc(C(=O)Nc2cccc(Cl)c2)cc1` was tested. Which “activity, negative = inhibition” value did it give?
Its value is inactive: 8.79%.

For `O=C(Nc1cc(F)cc(F)c1)c1ccc(NCCCN2CCCCCC2)c([N+](=O)[O-])c1`, which Potency is on record?
Its Potency is inconclusive: 20 µM [inhibitor, partial curve].

Which Potency does the source give for `COc1cc(C2C(C#N)=C(N)OC3=C2C(=O)CCC3)c([N+](=O)[O-])cc1OC` (configuration not stated) here?
The Potency was inconclusive: 17.8 µM [inhibitor, single point].

How did the “activity, negative = inhibition” value turn out when `Fc1ccc(N2CCN(C(=S)NCc3ccco3)CC2)cc1` was run?
The value was inactive: -15.1%.

For `C/C(=N\NC(=O)CCc1c(C)n[nH]c1C)c1ccc([N+](=O)[O-])cc1`, which “activity, negative = inhibition” value is on record?
Its value is inactive: -17.5%.

Which “activity, negative = inhibition” value does the source give for `N#CCc1ccc(NS(=O)(=O)c2ccc(N3CCCC3=O)cc2)cc1` here?
Its value is inactive: -1.69%.

With `CCOC(=O)c1c(C)[nH]c(C)c1S(=O)(=O)N1CCC(C(=O)Nc2ccccc2CC)CC1` as the compound, how does the “activity, negative = inhibition” value read?
The value was inactive: 0.669%.

`O=C1NC(=O)/C(=C\c2ccc(Oc3ccc([N+](=O)[O-])cn3)cc2)S1` was tested. Which Potency did it give?
The Potency was inconclusive: 8.91 µM [inhibitor, partial curve].

Which Potency does the source give for `Clc1ccc2nnnc(-c3ccccc3)c2c1` here?
The Potency was inconclusive: 20 µM [inhibitor, single point].

`O=C(Nc1nnc(SCc2ccccc2)s1)c1ccco1` was tested. Which “activity, negative = inhibition” value did it give?
The value was inactive: -8.61%.

Which Potency does the source give for `Cc1cc(C)cc(OCC(=O)Nc2nc3ccc([N+](=O)[O-])cc3s2)c1` here?
The Potency was inconclusive: 1.78 µM [inhibitor, full curve].

Which Potency does the source give for `COC(=O)c1ccc2nc(C)cc(Nc3ccc(N(C)C)cc3)c2c1` here?
Its Potency is inconclusive: 25.1 µM [inhibitor, partial curve].

With `CCC(Sc1nnc2c3ccccc3n(CC)c2n1)C(=O)Nc1sc2c(c1C#N)CCCC2` (configuration not stated) as the compound, how does the Potency read?
The Potency was inconclusive: 20 µM [inhibitor, partial curve, poor fit].

Which Potency does the source give for `CCn1c2ccccc2c2cc(NC(=O)c3ccco3)ccc21` here?
Its Potency is inconclusive: 12.6 µM [inhibitor, partial curve].

How did the Potency turn out when `CC1(C)N=C(SCc2ccc(Cl)cc2)c2ccccc2N1` was run?
Its Potency is inconclusive: 11.2 µM [inhibitor, partial curve].

For `C=C[C@H](C)[C@](C)(O)c1ccccc1`, which “activity, negative = inhibition” value is on record?
Its value is inactive: 5.18%.

With `CC(C)Oc1nc(-c2ccccc2Cl)nc2ccccc12` as the compound, how does the Potency read?
The Potency was inconclusive: 44.7 µM [inhibitor, single point].

With `CCCc1nc(SCC(=O)c2ccc(F)cc2)c2ccccc2n1` as the compound, how does the Potency read?
The Potency was inconclusive: 15.8 µM [inhibitor, partial curve].

How did the “activity, negative = inhibition” value turn out when `Cc1nc(CCNC(=O)Cc2ccc(F)cc2)cs1` was run?
Its value is inactive: -6.16%.

For `O=C(CCSc1ccccc1)Nc1nc2c(s1)COc1ccccc1-2`, which Potency is on record?
Its Potency is inconclusive: 7.94 µM [inhibitor, full curve].

With `CC1=C(c2ccc(C(C)C)cc2)S(=O)(=O)N=C1N1CCC(C(=O)Nc2ccc(C)cc2)CC1` as the compound, how does the Potency read?
Its Potency is inconclusive: 0.224 µM [inhibitor, full curve, poor fit].

For `COc1ccc(C2C3C=CCC(c4cccc(-c5ccc(C)cc5)c4)C3C(=O)N2Cc2ccccc2)cc1Cl` (configuration not stated), which “activity, negative = inhibition” value is on record?
Its value is inactive: 1.74%.

With `COc1ccc(-c2cc3ccc(O)c(CN4CCCC(C)C4)c3oc2=O)cc1OC` (configuration not stated) as the compound, how does the Potency read?
Its Potency is inconclusive: 35.5 µM [activator, single point].

`Cc1cccc(OCC(=O)NC(=S)N2CCCc3ccccc32)c1` was tested. Which Potency did it give?
The Potency was inconclusive: 14.1 µM [inhibitor, partial curve].

For `COc1ccc(Cc2nc3ccccc3n2Cc2ccccc2C)cc1`, which Potency is on record?
Its Potency is inconclusive: 2.82 µM [inhibitor, partial curve, poor fit].

How did the Potency turn out when `Cc1cc2[nH]c(=O)c(=O)[nH]c2cc1S(=O)(=O)N1CCN(c2ccccc2)CC1` was run?
Its Potency is inconclusive: 35.5 µM [inhibitor, single point].

For `CCNC(=S)N1CCN(c2ccc([N+](=O)[O-])cc2)CC1`, which Potency is on record?
Its Potency is active: 5.62 µM.

For `CC(Oc1ccccc1)C(=O)Nc1ccc(C(=O)OCc2cc(=O)n3nc(C4CC4)sc3n2)cc1` (configuration not stated), which “activity, negative = inhibition” value is on record?
Its value is inactive: -6.25%.

Which Potency does the source give for `O=c1[nH]c2ccccc2c(O)c1O` here?
Its Potency is active: 3.16 µM.

`Cc1ccccc1-c1nc2sc(-c3ccccc3)cc2c(=O)o1` was tested. Which Potency did it give?
The Potency was inconclusive: 12.6 µM [inhibitor, partial curve].

Which Potency does the source give for `C=CCn1c(SCC(=O)C23CC4CC(CC(C4)C2)C3)nc(O)cc1=O` here?
The Potency was inconclusive: 35.5 µM [inhibitor, partial curve].

For `COc1ccccc1OCCNC(=O)/C=C/c1ccc([N+](=O)[O-])cc1`, which Potency is on record?
Its Potency is inconclusive: 10 µM [inhibitor, partial curve].

For `CCOC(=O)c1sc(NC(=O)CSc2nnc(-c3ccco3)n2CC)c(C(=O)OCC)c1C`, which Potency is on record?
Its Potency is inconclusive: 39.8 µM [inhibitor, partial curve, poor fit].

For `CN(C)c1cccc2c1C(=O)c1ccccc1C2=O`, which Potency is on record?
The Potency was inconclusive: 20 µM [inhibitor, partial curve].

With `Oc1cccc2c(NC(=S)Nc3ccc(OC(F)F)cc3)cccc12` as the compound, how does the Potency read?
Its Potency is active: 11.2 µM.

How did the “activity, negative = inhibition” value turn out when `CC(NCC(=O)Nc1cc(S(=O)(=O)N2CCCCCC2)ccc1Cl)c1ccccc1` (configuration not stated) was run?
The value was inactive: -6.97%.

How did the Potency turn out when `O=C(Nc1cccc(-c2csc(Nc3ccc(Cl)cc3)n2)c1)c1cc([N+](=O)[O-])cc(C(F)(F)F)c1` was run?
The Potency was inconclusive: 14.1 µM [inhibitor, partial curve, poor fit].

How did the Potency turn out when `CCOC(=O)/C(C#N)=N/Nc1ccc(S(=O)(=O)N2CCc3ccccc32)cc1` was run?
The Potency was inconclusive: 22.4 µM [inhibitor, single point].

How did the Potency turn out when `CC(C)N(Cc1nc(-c2ccc(Cl)cc2)no1)C(=O)C(c1ccccc1)c1ccccc1` was run?
The Potency was inconclusive: 14.1 µM [inhibitor, partial curve].

Which “activity, negative = inhibition” value does the source give for `Cc1nc2ccccc2c(=O)n1NS(C)(=O)=O` here?
Its value is inactive: 6.1%.

How did the “activity, negative = inhibition” value turn out when `CCc1ccc(-n2nc(CO)c(C(=O)NCc3ccccc3Cl)n2)cc1` was run?
Its value is inactive: -15.1%.

Which Potency does the source give for `Nc1c(C(=O)c2ccc(F)cc2)oc2ccccc12` here?
The Potency was inconclusive: 12.6 µM [inhibitor, partial curve].

How did the “activity, negative = inhibition” value turn out when `Cn1c(=O)c(=O)n(C)c2cc(NS(=O)(=O)c3ccc(Br)cc3)c(Cl)cc21` was run?
Its value is inactive: -15.8%.

`CC1(C)COC(/C=C/c2cccc([N+](=O)[O-])c2)=N1` was tested. Which “activity, negative = inhibition” value did it give?
The value was inactive: -2.77%.

For `CCn1c2ccccc2c2cc(/C=N/NC(=O)c3ccccc3)ccc21`, which Potency is on record?
The Potency was inconclusive: 2.24 µM [inhibitor, full curve].

How did the “activity, negative = inhibition” value turn out when `O=C1NCCn2ccc(=O)cc21` was run?
Its value is inactive: 1.65%.

How did the Potency turn out when `CCCCCCCC1Cc2ccccc2C(C(C(=O)OC)C(=O)OC)N1C(=O)OC` (configuration not stated) was run?
Its Potency is “inactive”.

Which Potency does the source give for `COc1ccccc1/C=C/C(=O)/C=C/c1ccccc1O` here?
The Potency was active: 14.1 µM.

With `CC(=O)N1CC2([N+](=O)[O-])CN(C(C)=O)CC([N+](=O)[O-])(C1)C2(C)C` as the compound, how does the “activity, negative = inhibition” value read?
The value was inactive: 4.01%.

How did the “activity, negative = inhibition” value turn out when `COc1ccc(NC(=O)Cn2c(=O)n(-c3ccc(C)cc3)c(=O)c3c2c2cc(C)ccc2n3C)cc1` was run?
The value was inactive: 14.1%.

Which “activity, negative = inhibition” value does the source give for `O=C(Cn1cnc([N+](=O)[O-])c1)NCc1ccc(F)cc1` here?
Its value is inactive: -0.407%.

How did the “activity, negative = inhibition” value turn out when `Cc1ccc(Cc2c(C)nc3nc(SCC(=O)NCCC(C)C)nn3c2C)cc1` was run?
Its value is inactive: -12.5%.

Which Potency does the source give for `N#Cc1cc2[nH]c(=O)c(=O)[nH]c2cc1[N+](=O)[O-]` here?
Its Potency is inconclusive: 3.16 µM [inhibitor, partial curve].

For `Clc1ccc(/C=N/Nc2nnc(-c3ncc[nH]3)c3ccccc23)cc1`, which Potency is on record?
The Potency was inconclusive: 10 µM [inhibitor, partial curve].

`Cc1cc(C)nc(SCC(=O)NC2=NN=C(c3ccc(Br)cc3)CS2)n1` was tested. Which Potency did it give?
The Potency was inconclusive: 31.6 µM [inhibitor, single point].

How did the “activity, negative = inhibition” value turn out when `Cc1ccn2cc(CNC(=O)c3ccc(Br)o3)nc2c1` was run?
The value was inactive: -9.7%.

For `COc1ccc(N=C2CCS(=O)(=O)c3sccc32)cc1`, which Potency is on record?
The Potency was inconclusive: 14.1 µM [inhibitor, partial curve].
